Test results taken from the supplement of paper PMC11417369.
Some of the results follow.

system: PfAP2-HC AP2 domain (GST-tagged); test: gcPBM binding intensity (ln(normalized median fluorescence intensity)); higher = stronger DNA binding
In short: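 Binding intensity values are the highest Masliner-normalised natural-log median intensity among replicate spots of either probe orientation. The binding step lasted 1 h in 1× PBS with 1% milk, 0.2 mg/ml BSA, 0.5% salmon testes DNA and 0.03% Triton X-100, using GST-tagged P. falciparum DNA-binding domains expressed in E. coli on an Agilent 4 × 180k array of primer-extended double-stranded 36-bp intergenic genomic probes plus negative controls. Alexa488 anti-GST antibody and a 488 nm scan detected bound protein.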

Sequence | gcPBM binding intensity (ln)
TTCAACATATTAAAAAGTACAGAATATAACATTATA [XGTACX_site1361] | 9.56
GAATAAAAAATTGGCACACATAAATATATGGATATA [CACACA_site3047] | 9.83
TATACGTGAATGACAGTGCATTTCAAAAGTATAAAA [GTGCAC_site9887] | 9.79
AATAAATTTAGACACACACACACATATAAATAAATA [CACACA_site6531] | 11.1
TATATATCCTCTGAATGTACTTGTTTAATAATGTAG [XGTACX_site4332] | 9.45
TGTGTAATATTCTGTTGTACATAACTCATAAATAAA [XGTACX_site5308] | 9.37
ATAATATAATATATATGTACACATCCTTTTTGTGTA [XGTACX_site2879] | 9.66
TAAAAGTAAAAAGGTAGTACCTAAATAATATATATA [XGTACX_site8399] | 9.86
ATAAGATAGGCATATACACACATTTATTTACAGATA [CACACA_site5754] | 9.8
AGTAGGCATATTGGTTGTACAAAAAAATTATGCACC [XGTACX_site8925] | 9.8
TTTTTTTTTTCTCTCGCACACATTTTTTAAAATGAG [CACACA_site2607] | 9.93
ATATTTATATAGATGTGTACATAAATATAATAACAT [XGTACX_site1681] | 9.81
GACTCTTAAAAAATTTGTACCCACATAAATAATATA [XGTACX_site4313] | 9.48
TTTGGGTATACACATACATGCATGTCCTTATATATA [TGCATGCA_site84] | 10
ATTATTTATTTATTTTTTTTTTTTTTCTCTTTTCCT [GTGCAC_negctrl_site656] | 9.47
ATATCATAAATTTATGCATGTTCTTTCTTCAACTCT [TGCATGCA_site992] | 9.64
TTGAATAAATTGGAATAAATATAATAAAATAAGGAA [XGTACX_negctrl_site302] | 9.86
CATACATATATTATTGCACACATATAAAATACCCCC [CACACA_site9292] | 10.5
TACCAATAAATGAAGGTGCGTGCTTGCCTTTGCTAT | 9.64
TAGGAATTTAATAAATGTACATATACATAATATATA [XGTACX_site3672] | 9.55
TTGTATAGTCTGATATGTACATATATATATATATAA [XGTACX_site4307] | 9.66
TATAAAAAATTAAAATTTTTCTTATTTTTTTTAGAT [TGCATGCA_negctrl_site125] | 9.2
ACCACCAGGAACAAAGCACATTAGGAAAAATAAAAC [XGTACX_negctrl_site228] | 9.96

Sequence | gcPBM binding intensity (ln)
TGGATACACAAAAATTAAAAAAATAAACAAACAAAT [GTGCAC_negctrl_site105] | 9.76
TCCTTACATTTTAAAACACACAAAAATTAATTGTTA [CACACA_site2313] | 9.52
AAAAAATAGTGGTATGCATGTCCCTTGTATTTTCTT [TGCATGCA_site587] | 9.63
TACTTTTATATGAATACACACAGGAATATAAATATG [CACACA_site7647] | 9.81
AAAATACCCATTTTAGTACACACTTAAAAAATTATT [CACACA_site8966] | 9.62
AGACCTATGATATATACACACATATATTTATTTATA [CACACA_site6630] | 9.9
TATATAACTAAAATAACACACATATATAAAAATATA [CACACA_site7416] | 9.88
ATTATAACACTTATTTCATTTGTATGCCCTTTAAAA [CACACA_negctrl_site955] | 9.62
TAATATTTCATTAGGTGTACACTACATAGTAGTAGA [XGTACX_site366] | 9.57
TATAAATATTTTATTGTACACACTTTTTATGAATGA [CACACA_site3136] | 9.65
GTTTGTTTGTTTGTTCGTACATATATAAAATAAAAA [XGTACX_site4731] | 9.52
TATGCAATATATTATATTCTGTAAATATTATATATT [TGCATGCA_negctrl_site67] | 9.56
TTTTTTAAAATATGGACACACATATATATATCTGTA [CACACA_site5535] | 9.62
TATATATTTTTTAATTGTACACTTCAAAAACAAAAA [XGTACX_site5595] | 9.34
ATAATCAACATTAGGTGTACAAAATATGTATGTTTT [XGTACX_site6696] | 9.85
GTAGTTATATTAAGGGTGCTTAATTAGATTAAACAA | 9.59
AAAAACTTAATATTGACACACATTTTTAAGAATAAT [CACACA_site4291] | 9.72
ATTGAACACATCTATGCATGCACGGAAAAAAGTACA [TGCATGCA_site401] | 9.89
AGAATAAATAAATATTGTACATATAAAATATATATA [XGTACX_site896] | 9.72
TTCAAATTTCCACATACACACCTTGTAGATATATAT [CACACA_site7984] | 9.85
ATGCGTTTAGCAAAAAGTACATATATATATAATATT [XGTACX_site1928] | 9.57
ATATATATATATATTTGTACTTAATTGATTTTACTT [XGTACX_site2663] | 10
